Measured values taken from the supplement of paper PMC12230231.

The sequences below were run on SIVsab (simian immunodeficiency virus of sabaeus monkeys), single-cycle GFP reporter, in CRFK cells (assay: enrichment among uninfected cells over input (fold); higher = stronger restriction). Settings: library: human / rhesus combinations.
Protocol: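 Pools of CRFK cells expressing variants of the TRIM5α v1 loop were challenged with the single-cycle reporter, sorted by GFP and sequenced; mean of two replicates.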
“MASGILVNVKEEVTCPICLELLTQPLSLDCGHSFCQACLTANHKKSMLDKGESSCPVCRISYQPENIRPNRHVANIVEKLREVKLSPEGQKVDHCARHGEKLLLFCQEDGKVICWLCERSQEHRGHHTFLTEEVAREYQVKLQAALEMLRQKQQEAEELEADIREEKASWKTQIQYDKTNVLADFEQLRDILDWEESNELQNLEKEEEDILKSLTNSETEMVQQTQSLRELISDLEHRLQGSVMELLQGVDGVIKRTENVTLKKPETFPKNQRRVFRAPDLKGMLEVFRELTDVRRYWVDVTVAPNNISCAVISEDKRQVSSPKPQIIYQAPGTLFTFQSLVNFNYCTGILGSQSITSGKHYWEVDVSKKTAWILGVCAGFQPDAMCNIEKNENYQPKYGYWVIGLEEGVKCSAFQDSSFHTPSVPFIVPLSVIICPDRVGVFLDYEACTVSFFNITNHGFLIYKFSHCSFSQPVFPYLNPRKCGVPMTLCSPSS [human TRIM5α, 330-340 = QAPGTLFTFQSLV]” gave an enrichment of 0.0934 ± 0.021. Sequence “MASGILVNVKEEVTCPICLELLTQPLSLDCGHSFCQACLTANHKKSMLDKGESSCPVCRISYQPENIRPNRHVANIVEKLREVKLSPEGQKVDHCARHGEKLLLFCQEDGKVICWLCERSQEHRGHHTFLTEEVAREYQVKLQAALEMLRQKQQEAEELEADIREEKASWKTQIQYDKTNVLADFEQLRDILDWEESNELQNLEKEEEDILKSLTNSETEMVQQTQSLRELISDLEHRLQGSVMELLQGVDGVIKRTENVTLKKPETFPKNQRRVFRAPDLKGMLEVFRELTDVRRYWVDVTVAPNNISCAVISEDKRQVSSPKPQIIYQARGTLFQTLVNFNYCTGILGSQSITSGKHYWEVDVSKKTAWILGVCAGFQPDAMCNIEKNENYQPKYGYWVIGLEEGVKCSAFQDSSFHTPSVPFIVPLSVIICPDRVGVFLDYEACTVSFFNITNHGFLIYKFSHCSFSQPVFPYLNPRKCGVPMTLCSPSS [human TRIM5α, 330-340 = QARGTLFQTLV]” has an enrichment of 0.00534 ± 0.0031. “MASGILVNVKEEVTCPICLELLTQPLSLDCGHSFCQACLTANHKKSMLDKGESSCPVCRISYQPENIRPNRHVANIVEKLREVKLSPEGQKVDHCARHGEKLLLFCQEDGKVICWLCERSQEHRGHHTFLTEEVAREYQVKLQAALEMLRQKQQEAEELEADIREEKASWKTQIQYDKTNVLADFEQLRDILDWEESNELQNLEKEEEDILKSLTNSETEMVQQTQSLRELISDLEHRLQGSVMELLQGVDGVIKRTENVTLKKPETFPKNQRRVFRAPDLKGMLEVFRELTDVRRYWVDVTVAPNNISCAVISEDKRQVSSPKPQIIYQAPGTRFTFPSLVNFNYCTGILGSQSITSGKHYWEVDVSKKTAWILGVCAGFQPDAMCNIEKNENYQPKYGYWVIGLEEGVKCSAFQDSSFHTPSVPFIVPLSVIICPDRVGVFLDYEACTVSFFNITNHGFLIYKFSHCSFSQPVFPYLNPRKCGVPMTLCSPSS [human TRIM5α, 330-340 = QAPGTRFTFPSLV]” showed an enrichment of 0.306 ± 0.1. In the case of “MASGILVNVKEEVTCPICLELLTQPLSLDCGHSFCQACLTANHKKSMLDKGESSCPVCRISYQPENIRPNRHVANIVEKLREVKLSPEGQKVDHCARHGEKLLLFCQEDGKVICWLCERSQEHRGHHTFLTEEVAREYQVKLQAALEMLRQKQQEAEELEADIREEKASWKTQIQYDKTNVLADFEQLRDILDWEESNELQNLEKEEEDILKSLTNSETEMVQQTQSLRELISDLEHRLQGSVMELLQGVDGVIKRTENVTLKKPETFPKNQRRVFRAPDLKGMLEVFRELTDVRRYWVDVTVAPNNISCAVISEDKRQVSSPKPQIIYGAPGTLYTFQTLTNFNYCTGILGSQSITSGKHYWEVDVSKKTAWILGVCAGFQPDAMCNIEKNENYQPKYGYWVIGLEEGVKCSAFQDSSFHTPSVPFIVPLSVIICPDRVGVFLDYEACTVSFFNITNHGFLIYKFSHCSFSQPVFPYLNPRKCGVPMTLCSPSS [human TRIM5α, 330-340 = GAPGTLYTFQTLT]”, the enrichment is reported as 0.244 ± 0.34. Sequence “MASGILVNVKEEVTCPICLELLTQPLSLDCGHSFCQACLTANHKKSMLDKGESSCPVCRISYQPENIRPNRHVANIVEKLREVKLSPEGQKVDHCARHGEKLLLFCQEDGKVICWLCERSQEHRGHHTFLTEEVAREYQVKLQAALEMLRQKQQEAEELEADIREEKASWKTQIQYDKTNVLADFEQLRDILDWEESNELQNLEKEEEDILKSLTNSETEMVQQTQSLRELISDLEHRLQGSVMELLQGVDGVIKRTENVTLKKPETFPKNQRRVFRAPDLKGMLEVFRELTDVRRYWVDVTVAPNNISCAVISEDKRQVSSPKPQIIYGAPGTLFTFQSFVNFNYCTGILGSQSITSGKHYWEVDVSKKTAWILGVCAGFQPDAMCNIEKNENYQPKYGYWVIGLEEGVKCSAFQDSSFHTPSVPFIVPLSVIICPDRVGVFLDYEACTVSFFNITNHGFLIYKFSHCSFSQPVFPYLNPRKCGVPMTLCSPSS [human TRIM5α, 330-340 = GAPGTLFTFQSFV]” has an enrichment of 0.0828 ± 0.12.

Same assay, conditions: library: insertions and deletions
“MASGILVNVKEEVTCPICLELLTQPLSLDCGHSFCQACLTANHKKSMLDKGESSCPVCRISYQPENIRPNRHVANIVEKLREVKLSPEGQKVDHCARHGEKLLLFCQEDGKVICWLCERSQEHRGHHTFLTEEVAREYQVKLQAALEMLRQKQQEAEELEADIREEKASWKTQIQYDKTNVLADFEQLRDILDWEESNELQNLEKEEEDILKSLTNSETEMVQQTQSLRELISDLEHRLQGSVMELLQGVDGVIKRTENVTLKKPETFPKNQRRVFRAPDLKGMLEVFRELTDVRRYWVDVTVAPNNISCAVISEDKRQVSSPKPQIIYGTRYQTFVNFNYCTGILGSQSITSGKHYWEVDVSKKTAWILGVCAGFQPDAMCNIEKNENYQPKYGYWVIGLEEGVKCSAFQDSSFHTPSVPFIVPLSVIICPDRVGVFLDYEACTVSFFNITNHGFLIYKFSHCSFSQPVFPYLNPRKCGVPMTLCSPSS [human TRIM5α, 3-codon deletion at 330]” gave an enrichment of 0.559 ± 0.052. Sequence “MASGILVNVKEEVTCPICLELLTQPLSLDCGHSFCQACLTANHKKSMLDKGESSCPVCRISYQPENIRPNRHVANIVEKLREVKLSPEGQKVDHCARHGEKLLLFCQEDGKVICWLCERSQEHRGHHTFLTEEVAREYQVKLQAALEMLRQKQQEAEELEADIREEKASWKTQIQYDKTNVLADFEQLRDILDWEESNELQNLEKEEEDILKSLTNSETEMVQQTQSLRELISDLEHRLQGSVMELLQGVDGVIKRTENVTLKKPETFPKNQRRVFRAPDLKGMLEVFRELTDVRRYWVDVTVAPNNISCAVISEDKRQVSSPKPQIIYGARGTRTFVNFNYCTGILGSQSITSGKHYWEVDVSKKTAWILGVCAGFQPDAMCNIEKNENYQPKYGYWVIGLEEGVKCSAFQDSSFHTPSVPFIVPLSVIICPDRVGVFLDYEACTVSFFNITNHGFLIYKFSHCSFSQPVFPYLNPRKCGVPMTLCSPSS [human TRIM5α, 2-codon deletion at 336]” has an enrichment of 0.604 ± 0.78. In the case of “MASGILVNVKEEVTCPICLELLTQPLSLDCGHSFCQACLTANHKKSMLDKGESSCPVCRISYQPENIRPNRHVANIVEKLREVKLSPEGQKVDHCARHGEKLLLFCQEDGKVICWLCERSQEHRGHHTFLTEEVAREYQVKLQAALEMLRQKQQEAEELEADIREEKASWKTQIQYDKTNVLADFEQLRDILDWEESNELQNLEKEEEDILKSLTNSETEMVQQTQSLRELISDLEHRLQGSVMELLQGVDGVIKRTENVTLKKPETFPKNQRRVFRAPDLKGMLEVFRELTDVRRYWVDVTVAPNNISCAVISEDKRQVSSPKPQIIYGARGTRYQTFVNGTRYQTFVNFNYCTGILGSQSITSGKHYWEVDVSKKTAWILGVCAGFQPDAMCNIEKNENYQPKYGYWVIGLEEGVKCSAFQDSSFHTPSVPFIVPLSVIICPDRVGVFLDYEACTVSFFNITNHGFLIYKFSHCSFSQPVFPYLNPRKCGVPMTLCSPSS [human TRIM5α, 9-codon duplication at 333]”, the enrichment is reported as 0.233 ± 0.063.

± gives the standard deviation of the averaged measurements. Restriction of a single-cycle SIVsab GFP reporter by TRIM5α v1-loop variants in CRFK cells. Human variants: read share among cells still uninfected after two challenges over input, higher = gained restriction. Rhesus variants: share among infected cells over input, higher = lost restriction. Reporter dose not given per row. No active / inactive call per row; the paper calls a change when both replicates lie above its controls (mean + 2 SD of stop or wild-type variants, or the top frameshift score). Residues outside the varied loop are taken from Swiss-Prot. The paper reads the human single-substitution scores as noise; they and the rhesus combinations repeat poorly (rank correlation 0.3 to 0.4), indel scores repeat only for the top variants, rhesus substitutions well (0.9).
